Source: PubChem BioAssay AID588342 (National Center for Advancing Translational Sciences (NCATS), 2011)
Among all 360,000 compounds or so, about 25,000 (6.9%) were called active. The inconclusive results got no clear call from the source; some entries with a clear call stand among them for comparison. Calls follow the shape of the dose curve; as a rule, active = well fitted inhibition curve with a large enough effect; inconclusive = small, poorly fitted or top-dose-only effect; inactive = flat fitted curve, though single readings scatter. Where the call is inconclusive, the potency comes from a doubtful curve fit.

molecular target: Luciferin 4-monooxygenase (Photinus pyralis) (UniProt P08659); assay: qHTS profiling assay for firefly luciferase inhibitor/activator using purifed enzyme and Km concentrations of substrates (counterscreen for miR-21 project); conditions: purified FLuc, luminescence inhibition; series mostly up to 57.5 µM; also: nearly all actives have a fitted effect of over 55% in size
How it was run: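 Purified P. pyralis luciferase (10nM final) with 10uM D-luciferin and 10uM ATP (Km levels) in 50mM Tris acetate pH 7.5, 10mM Mg acetate, 0.01% Tween-20, 0.05% BSA; qHTS 6-point titration, ~60 µM downward; luminescence read.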
Potency is read from the fitted curve at half-maximal effect; tags tell the direction and shape of the fitted curve.

Sequence of UniProt P08659 (P08659 whole entry, looked up): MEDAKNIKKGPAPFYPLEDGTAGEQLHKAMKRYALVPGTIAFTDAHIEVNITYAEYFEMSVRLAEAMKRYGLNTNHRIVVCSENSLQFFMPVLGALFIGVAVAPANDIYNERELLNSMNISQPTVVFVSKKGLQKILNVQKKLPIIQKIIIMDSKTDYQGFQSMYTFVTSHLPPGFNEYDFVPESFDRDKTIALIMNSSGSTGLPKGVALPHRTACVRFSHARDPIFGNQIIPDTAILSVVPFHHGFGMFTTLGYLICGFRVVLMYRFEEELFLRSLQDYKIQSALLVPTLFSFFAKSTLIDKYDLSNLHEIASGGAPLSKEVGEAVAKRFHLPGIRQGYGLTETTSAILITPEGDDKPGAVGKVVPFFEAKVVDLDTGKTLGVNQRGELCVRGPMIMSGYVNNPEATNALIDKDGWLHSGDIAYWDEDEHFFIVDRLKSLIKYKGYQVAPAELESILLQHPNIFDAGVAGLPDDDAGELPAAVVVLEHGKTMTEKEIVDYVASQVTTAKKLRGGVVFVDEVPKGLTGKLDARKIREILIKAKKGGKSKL

Compound	Potency
COc1ccc(C(=O)NCC(=O)N=Nc2c(O)n(Cc3ccccc3)c3ccccc23)cc1OC	inactive
O=C(N=Nc1c(O)n(Cc2ccccc2)c2ccccc12)c1ccc(O)cc1	active: 0.953 µM
Cc1ccc(C)c(NC(=O)c2cc3ccccn3n2)c1	active: 10.7 µM
O=c1c2cc(NC(=S)NC3CCCCC3)ccc2nc2n1CCCCC2	inconclusive: 37.9 µM [inhibitor, partial curve, poor fit]
Clc1ccc(-c2cc(CSc3ccccc3)on2)cc1	active: 2.39 µM
O=C(Nc1ccc(Cl)cc1)C(Cl)C(=O)c1ccccc1 (stereo unspecified)	active: 15.1 µM
O=C(Nc1ccc2c(c1)OCCO2)C1CCN(c2cnccn2)CC1	inconclusive: 30.1 µM [inhibitor, single point]
Cc1cc(C(=O)NCc2ccccc2F)cs1	inconclusive: 23.9 µM [inhibitor, partial curve, poor fit]
O=C(NCS(=O)(=O)c1ccccc1)c1ccccc1	inactive
O=C(Nc1ccccc1F)c1ccc(CSc2ccccc2)o1	active: 16.9 µM
O=C(O)c1cc(NN=Nc2cccc([N+](=O)[O-])c2)cc([N+](=O)[O-])c1	inconclusive: 21.3 µM [inhibitor, single point]
COc1ccc(OC)c(NC(=O)N(C)CCc2c(C)nn(C)c2C)c1	inactive
COC(=O)c1ccc(CN2CCN(CC=C(C)C)C(CCO)C2)cc1 (stereo unspecified)	active: 16.9 µM
COc1ccc(C(=O)O/N=C(\N)c2cccc(C)c2)cc1OC	active: 21.3 µM
c1ccc(Nc2nc(NCC3CCCO3)c3ccccc3n2)cc1 (stereo unspecified)	inconclusive: 23.9 µM [inhibitor, partial curve, poor fit]
O=C(CN1CCOCC1)Nc1ccc(C2CCCCC2)cc1	inconclusive: 37.9 µM [inhibitor, single point]
CC(NC(=O)NC(=O)c1ccc(Cl)cc1Cl)C1CC1 (stereo unspecified)	inconclusive: 26.9 µM [inhibitor, partial curve]
CCN(CC(=O)Nc1cc(S(=O)(=O)N2CCCCC2)ccc1C)Cc1ccccc1	inactive
Cc1ccc(NC(=O)c2onc(C)c2Cl)cc1	active: 13.5 µM
CCOc1ccc(Nc2nc(Cc3nnc(SCC(=O)c4ccc(C)c(C)c4)o3)cs2)cc1	inactive
O=c1[nH]cc(C(F)(F)F)cc1NS(=O)(=O)c1ccc([N+](=O)[O-])cc1	inconclusive: 37.9 µM [inhibitor, partial curve, poor fit]
O=C(/C=C/c1cccnc1)c1cccc(O)c1	inconclusive: 26.9 µM [inhibitor, single point]
CCC(=O)Nc1cccc(-c2nc3ccccc3o2)c1	inconclusive: 15.1 µM [inhibitor, partial curve]

Compound	Potency
CCOc1ccc(-c2nonc2NC(=O)COc2ccccc2)cc1	inconclusive: 23.9 µM [inhibitor, partial curve, poor fit]
Cc1nc2ccccc2c(=O)n1-c1cccc(NC(=O)c2cccs2)c1	inconclusive: 23.9 µM [inhibitor, partial curve, poor fit]
CCOC(=O)c1ccc(NC(=O)c2c(NCc3cc(OC)c(OC)cc3OC)sc3c2CCCC3)cc1	inconclusive: 21.3 µM [inhibitor, partial curve, poor fit]
CC(=O)Nc1cccc(OCC(=O)Nc2ccc(F)cc2)c1	inconclusive: 16.9 µM [inhibitor, partial curve]
Cc1ccc(-c2ccc3nnc(SCC(=O)NCC4CCCO4)n3n2)cc1 (stereo unspecified)	inactive
CCN(CC)C(=O)CSc1nnc(COc2cccc(C)c2)n1C	inactive
O=C(NC1CCCCC1)Oc1ccccc1	inconclusive: 37.9 µM [inhibitor, single point]
CCN(Cc1ccccc1)c1ccc(N=Nc2nn(C)c(C)c2[N+](=O)[O-])cc1	active: 15.1 µM
O=C(Nc1ccccc1)Nc1nnc(-c2ccccc2)o1	inconclusive: 30.1 µM [inhibitor, partial curve, poor fit]
O=C(N/N=C/c1ccc2nccnc2c1)c1cccc([N+](=O)[O-])c1	inconclusive: 19 µM [inhibitor, partial curve]
COc1ccc(-c2nnc3sc(COc4ccccc4)nn23)cc1	inconclusive: 23.9 µM [inhibitor, single point]
CCOc1cccc(C(=O)NC(=S)Nc2ccc3c(c2)OCCO3)c1	active: 8.49 µM
COC(=O)[C@H](Cc1ccccc1)NC(=O)N(C)Cc1ccccc1	inconclusive: 37.9 µM [inhibitor, partial curve, poor fit]
COc1ccc(NC(=O)c2c[nH]n3c(=O)cc(C4CCN(C(=O)OC(C)(C)C)CC4)nc23)cc1Cl	inconclusive: 23.9 µM [inhibitor, single point]
N#CCc1nc(CSc2nc3ccccc3s2)cs1	inconclusive: 19 µM [inhibitor, partial curve]
Cc1cc(N/N=C/c2cccc(Cl)c2)nc(NCc2ccccc2)n1	inconclusive: 12 µM [inhibitor, partial curve, poor fit]
O=C(CN1C(=O)C(=O)N(Cc2ccccc2)C1=O)c1ccc[nH]1	inconclusive: 26.9 µM [inhibitor, partial curve, poor fit]
COc1cc2c(-c3ccccc3Cl)nc3c(c(C)nn3-c3ccccc3)c2cc1OC	inactive
Cc1ccc(S(=O)(=O)CCc2nnc(NC(=O)COc3cccc(C)c3)s2)cc1	inactive
CCOC(=O)c1c(-c2ccc(OC)c(OC)c2)csc1NC(=O)c1ccc(F)cc1	inactive
Cc1ccc(SCc2cc(=O)n3[nH]c(C)nc3n2)cc1	inconclusive: 26.9 µM [inhibitor, partial curve, poor fit]
COc1ccc(N2C(=O)[C@@H]3[C@H](C2=O)[C@H]2c4ccccc4C=CN2[C@@H]3C(C)=O)cc1	inconclusive: 19 µM [inhibitor, partial curve, poor fit]
Nc1c(C(=O)c2ccccc2)oc2ccccc12	inconclusive: 16.9 µM [inhibitor, partial curve]
